Assay results: US20250223331A1, “GLP-1/GIP DUAL-TARGETED POLYPEPTIDE AND FUSION PROTEIN AND APPLICATIONS THEREOF” (SUNSHINE LAKE PHARMA CO., LTD., priority 2021, published 2025)
Marks after values point to notes of the source that are not given here.

What was measured:
GLP-1R or GIPR = assay: in vitro agonistic activity of fusion proteins, summary statement; assay type: cell-based; conditions: cAMP, GLP-1R / GIPR cells
Method: The digested product was electrophoresed on 1% agarose gel and the target band was cut out with a clean blade, then a gel recovery kit was used to recover the target fragment. The specific experimental operations are carried out according to the kit instructions; • 3) The target fragment enzymatic digestion recovery product and vector plasmid pcDNA3.1 fragment were connected through T4 ligase and transformed into DH5a competent cells, then single colonies were isolated by spreading on plates, and the transformants were selected and expanded for enzyme digestion verification and sequencing verification. • 4) 200 mL of the bacterial liquid obtained in inoculation step 3) and verified by sequencing to contain the fusion protein of the target product was used for plasmid extraction. The kit used was PureLink HiPure Plasmid Maxiprep Kit, and according to the instructions. After the plasmid was verified to be correct by PCR and enzyme digestion, pvuI restriction enzyme was used for linearization. Finally, the ethanol precipitation method was used to recover the plasmid. • 5) The host cells were HEK293, one day before transfection, the cells were spread into a 6-well plate at a density of 2×10^6 cells/well, and the addition volume was 1 mL/well. The recovered linearized plasmid was transfected into HEK293 cells using Lipofectamine 3000 transfection method, then G418 was added to screen to obtain mixed strains, single clones were obtained by limiting dilution and isolation, and the activity was tested and verified.
The cAMP produced by the recipient cells was detected by a cAMP detection kit (Cisbio, 62AM6PEC) according to the steps described in the operating instructions. […] If the mixture was not completely melted within 1.5 min, the cells were added dropwise to a 15 mL centrifuge tube containing 8 mL warm culture medium on a clean bench, then centrifuged at 900 rpm for 5 min, the supernatant was discarded, and the cells were re-suspended with 1 mL complete culture medium (15 times by pipetting).

normal C57BL/6 mice = assay: glucose tolerance in normal C57BL/6 mice (Example 8); assay type: in vivo; conditions: for Blood glucose value 0 min / Blood glucose value 15 min / Blood glucose value 30 min / Blood glucose value 60 min / Blood glucose value 90 min: 3 nmol/kg s.c. single dose, 72 h after dose, 2 g/kg glucose i.p.; for effect on blood glucose levels: normal C57 mice after a single dose for 72 h
Method: Experimental methods: Normal C57BL/6 mice were randomly divided into 6 groups (Vehicle group, Dulaglutide group, HEC-G113 group, HEC-G122 group, HEC-G126 group, HEC-G127 group) according to blood glucose and body weight, with 8 mice in each group. For the groups of Dulaglutide (Dulaglutide purchased from Eli Lilly, lot number was D256504), HEC-G113, HEC-G122, HEC-G126 and HEC-G127, the corresponding drug was injected subcutaneously into the mice at a dose of 3 nmol/kg, and for the control group, the corresponding vehicle was injected subcutaneously.
After 60 h of single administration, the mice were fasted for 12 h and drank water freely. Blood was collected from the tail vein to measure the basal blood glucose value of each group, then 2 g/kg of glucose solution was injected intraperitoneally, and blood glucose was measured at 15, 30, 60, 90 and 0 min after glucose administration. According to the blood glucose values measured at different time points, the blood glucose concentration-time curve was plotted, and the AUC0˜90min of each dose group was calculated, and the experimental results are shown in Table 7 and FIGS. 3-4

DIO mice = assay: in vivo efficacy in DIO model: body weight, food intake, liver, blood biochemistry
Description: Experimental methods: C57/BL6 mice were randomly divided into normal group NFD and model group HFD at the fifth week of age, and the normal group was fed with ordinary maintenance diet, while the model group was fed with high-fat diet D12492. Changes in body weight and food intake in mice were monitored every 3 weeks. After 16 weeks of feeding, the body weight of mice in the model group and the normal group were (47.9±3.4) g and (29.6±1.5) g, respectively, and the difference between the two groups was statistically significant. The normal group was divided into the control group, and the model group mice that were successfully modeled were divided into Vehicle group, Semaglutide group, HEC-G115 group and HEC-G124 group, with 10 mice in each group. For the groups of Semaglutide, HEC-G115 and HEC-G124, the corresponding drug was injected subcutaneously in each group, and PBS was injected subcutaneously in the Vehicle group. […] Weight and food intake were measured before each dose. After 3 weeks of administration, an intraperitoneal glucose tolerance test was performed. After 72 h of the last administration, samples were collected, liver weight was recorded, and liver pathological status and blood biochemical indexes were detected in each group.

[1] = long-term administration 10 nmol/kg s.c., 72 h after last administration
[2] = long-term administration 10 nmol/kg s.c., blood biochemistry

B1: HEC-G06: fusion protein of SEQ ID NO: 5 polypeptide, linker peptide and Fc fragment (protein)
chain: YGEGTFTSDYSIYLDKKAQRDFVEWLLAQGPSSGAPPPSGGGGSGGGGSGGGGSA[here human IgG4 Fc with S228P F234A L235A (EU numbers) without letters]
agonistic activity in vitro (GLP-1R or GIPR): strong activity in vitro

B2: HEC-G34: fusion protein of SEQ ID NO: 25 polypeptide, linker peptide and Fc fragment (protein)
chain: YGEGTFTSDYSIYLDKQAQRDFVEWLIAGGPSSGAPPPSGGGGSGGGGSGGGGSA[here human IgG4 Fc with S228P F234A L235A (EU numbers) without letters]
agonistic activity in vitro (GLP-1R or GIPR): strong activity in vitro

B3: HEC-G23: fusion protein of SEQ ID NO: 16 polypeptide, linker peptide and Fc fragment (protein)
chain: YGEGTFTSDYSIYLDKKAQRDFVEWLIAGGPSSGAPPPSGGGGSGGGGSGGGGSA[here human IgG4 Fc with S228P F234A L235A (EU numbers) without letters]
agonistic activity in vitro (GLP-1R or GIPR): strong activity in vitro

B4: HEC-G127: fusion protein of SEQ ID NO: 107 polypeptide, linker peptide and Fc fragment (protein)
chain: YSEGTFTSDYSILLDKKAQRDFIEWLLAGGPSSGAPPPSGGGGSGGGGSGGGGSA[here human IgG4 Fc with S228P F234A L235A (EU numbers) without letters]
Blood glucose value 0 min (normal C57BL/6 mice): 4.1 ± 0.4 mM | Blood glucose value 15 min (normal C57BL/6 mice): 7.4 ± 2.2 mM | Blood glucose value 30 min (normal C57BL/6 mice): 7.1 ± 1.7 mM | Blood glucose value 60 min (normal C57BL/6 mice): 5.6 ± 0.9 mM | Blood glucose value 90 min (normal C57BL/6 mice): 4.4 ± 0.7 mM | effect on blood glucose levels (normal C57BL/6 mice): significantly reduced the blood glucose levels

B5: HEC-G122: fusion protein of SEQ ID NO: 102 polypeptide, linker peptide and Fc fragment (protein)
chain: YSEGTFTSDYSILLDKIAQREFIEWLIAGGPSSGAPPPSGGGGSGGGGSGGGGSA[here human IgG4 Fc with S228P F234A L235A (EU numbers) without letters]
Blood glucose value 0 min (normal C57BL/6 mice): 4.5 ± 0.4 mM | Blood glucose value 15 min (normal C57BL/6 mice): 7.8 ± 1.9 mM | Blood glucose value 30 min (normal C57BL/6 mice): 6.6 ± 1.7 mM | Blood glucose value 60 min (normal C57BL/6 mice): 5.3 ± 1.1 mM | Blood glucose value 90 min (normal C57BL/6 mice): 4.8 ± 0.7 mM | effect on blood glucose levels (normal C57BL/6 mice): significantly reduced the blood glucose levels

B6: HEC-G124: fusion protein of SEQ ID NO: 104 polypeptide, linker peptide and Fc fragment (protein)
chain: YSEGTFTSDYSILLDKIAQREFVQWLIAGGPSSGAPPPSGGGGSGGGGSGGGGSA[here human IgG4 Fc with S228P F234A L235A (EU numbers) without letters]
effect on liver function and blood lipids (DIO mice): significantly improved the liver function and blood lipids | Cumulative food intake D 7-10 (DIO mice; 10 nmol/kg s.c. repeated, D 7-10): 14.3 g/pcs | Weight growth rate D 10 (DIO mice; 10 nmol/kg s.c. repeated, D 10): −15.5 ± 2.8% | Cumulative food intake D 11-13 (DIO mice; 10 nmol/kg s.c. repeated, D 11-13): 19.7 g/pcs | Weight growth rate D 13 (DIO mice; 10 nmol/kg s.c. repeated, D 13): −18.8 ± 3.9% | Cumulative food intake D 14-16 (DIO mice; 10 nmol/kg s.c. repeated, D 14-16): 25.0 g/pcs | Weight growth rate D 16 (DIO mice; 10 nmol/kg s.c. repeated, D 16): −19.1 ± 3.5% | Cumulative food intake D 17-19 (DIO mice; 10 nmol/kg s.c. repeated, D 17-19): 31.3 g/pcs | Weight growth rate D 19 (DIO mice; 10 nmol/kg s.c. repeated, D 19): −19.9 ± 4.4% | Cumulative food intake D 20-22 (DIO mice; 10 nmol/kg s.c. repeated, D 20-22): 37.6 g/pcs | Weight growth rate D 22 (DIO mice; 10 nmol/kg s.c. repeated, D 22): −20.0 ± 3.5% | Cumulative food intake D 23-27 (DIO mice; 10 nmol/kg s.c. repeated, D 23-27): 47.6 ^a g/pcs | Weight growth rate D 25 (DIO mice; 10 nmol/kg s.c. repeated, D 25): −19.2 ± 5.3^a % | Cumulative food intake D 0 (DIO mice; 10 nmol/kg s.c., D 0): 0.4 g/pcs | Weight growth rate D 0 (DIO mice; 10 nmol/kg s.c., D 0): 0.0 ± 0.0% | Cumulative food intake D 1 (DIO mice; 10 nmol/kg s.c., D 1): 1.2 g/pcs | Weight growth rate D 1 (DIO mice; 10 nmol/kg s.c., D 1): −6.0 ± 1.0% | Cumulative food intake D 2 (DIO mice; 10 nmol/kg s.c., D 2): 2.6 g/pcs | Weight growth rate D 2 (DIO mice; 10 nmol/kg s.c., D 2): −8.9 ± 1.2% | Cumulative food intake D 3 (DIO mice; 10 nmol/kg s.c., D 3): 4.8 g/pcs | Weight growth rate D 3 (DIO mice; 10 nmol/kg s.c., D 3): −9.3 ± 2.1% | Cumulative food intake D 4 (DIO mice; 10 nmol/kg s.c., D 4): 7.2 g/pcs | Weight growth rate D 4 (DIO mice; 10 nmol/kg s.c., D 4): −8.8 ± 3.0% | Cumulative food intake D 5 (DIO mice; 10 nmol/kg s.c., D 5): 8.7 g/pcs | Weight growth rate D 5 (DIO mice; 10 nmol/kg s.c., D 5): −8.3 ± 2.8% | Cumulative food intake D 6 (DIO mice; 10 nmol/kg s.c., D 6): 11.4 g/pcs | Weight growth rate D 6 (DIO mice; 10 nmol/kg s.c., D 6): −8.4 ± 2.6% | Weight growth rate D 7 (DIO mice; 10 nmol/kg s.c., D 7): −7.1 ± 2.9% | Liver (DIO mice; liver weight, long-term administration 10 nmol/kg s.c., 72 h after last administration): 0.9 ± 0.1 ^a g | Body weight (DIO mice; [1]): 32.8 ± 2.9 ^a g | Liver index (DIO mice; [1]): 2.8 ± 0.0 ^a % | ALT (DIO mice; [2]): 28.3 ± 5.8 ^a U/L | AST (DIO mice; [2]): 115.3 ± 22.6 ^a U/L | CHOL (DIO mice; [2]): 2.6 ± 0.3^a mmol/L | TRIGL (DIO mice; [2]): 1.0 ± 0.2 mmol/L | weight loss and feeding inhibition effects compared with Semaglutide (DIO mice; once every three days, after 4 weeks, same dose): comparable to those of the control group Semaglutide

B7: HEC-G126: fusion protein of SEQ ID NO: 106 polypeptide, linker peptide and Fc fragment (protein)
chain: YGEGTFTSDYSILLDKIAQREFIEWLLAGGPSSGAPPPSGGGGSGGGGSGGGGSA[here human IgG4 Fc with S228P F234A L235A (EU numbers) without letters]
Blood glucose value 0 min (normal C57BL/6 mice): 4.0 ± 0.4 mM | Blood glucose value 15 min (normal C57BL/6 mice): 7.3 ± 1.0 mM | Blood glucose value 30 min (normal C57BL/6 mice): 6.7 ± 0.7 mM | Blood glucose value 60 min (normal C57BL/6 mice): 5.4 ± 0.7 mM | Blood glucose value 90 min (normal C57BL/6 mice): 4.5 ± 1.0 mM | effect on blood glucose levels (normal C57BL/6 mice): significantly reduced the blood glucose levels
